Measurements as given in the supplement of paper PMC9446081.
Screen size: about 39,000 compounds; about 220 (0.56%) showed activity. Some of the results follow.

system: Escherichia coli K-12 BW25113; experiment: relative growth (OD600 normalised to plate interquartile mean) (fraction); higher = less growth inhibition, active = 0.2 or less; settings: 50 µM; LB; incubation time: overnight (16-24 h)
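Note: static incubation at 37 °C against the wild-type strain, values averaged over two biological replicates.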

| Compound | relative growth |
| --- | --- |
| C[C@@H]1CN([C@@H](C)CO)C(=O)c2cc(NC(=O)Nc3ccc(C(F)(F)F)cc3)ccc2O[C@@H]1CN(C)Cc1ccc(C(=O)O)cc1 | inactive: 0.973 |
| C[C@H]1CN([C@@H](C)CO)C(=O)Cc2cc(NC(=O)Cc3cn(C)c4ccccc34)ccc2O[C@H]1CN(C)S(=O)(=O)c1cn(C)cn1 | inactive: 1.01 |
| COc1ccc(NC(=O)Nc2ccc3c(c2)CC(=O)N([C@@H](C)CO)C[C@@H](C)[C@H](CN(C)S(C)(=O)=O)O3)cc1 | inactive: 1.02 |
| Cc1noc(C)c1NC(=O)Nc1ccc2c(c1)C(=O)N([C@H](C)CO)C[C@H](C)[C@@H](CN(C)Cc1ccccc1)OCCCC[C@H](C)O2 | inactive: 0.972 |
| COc1ccc(CN(C)C[C@@H]2Oc3ccc(NS(=O)(=O)c4cn(C)cn4)cc3C(=O)N([C@@H](C)CO)C[C@H]2C)cc1 | inactive: 0.999 |
| C[C@@H]1CN([C@@H](C)CO)C(=O)c2cc(N(C)C)ccc2O[C@@H](C)CCCCO[C@@H]1CN(C)S(=O)(=O)c1cn(C)cn1 | inactive: 1.03 |
| CO[C@H]1CN(C)C(=O)c2cc(NC(=O)CC(F)(F)F)ccc2OC[C@H](C)N(C(=O)C2CCOCC2)C[C@@H]1C | inactive: 1.01 |
| O=C(CCCCCNC(=O)OCc1ccc(CO[C@@H]2C[C@H](c3ccc(Br)cc3)C=C(C(=O)N3CCN(Cc4ccc5c(c4)OCO5)CC3)O2)cc1)NO | inactive: 1.02 |
| COc1ccc2c3c([nH]c2c1)[C@H](CO)N(CC1CCCCC1)C[C@]13CCN(CC1)C(=O)Nc1cccc(c1)F | inactive: 1.03 |
| COc1ccc(S(=O)(=O)N(C)C[C@H]2Oc3ccc(NS(=O)(=O)c4c(C)noc4C)cc3C(=O)N([C@@H](C)CO)C[C@@H]2C)cc1 | inactive: 1.01 |
| CN1CCN(C(=O)[C@H]2[C@H](CO)[C@H]3Cn4c(ccc(C5=CCCCC5)c4=O)[C@@H]2N3S(C)(=O)=O)CC1 | inactive: 0.963 |
| COc1ccc(CN(C)C[C@@H]2OCCCC[C@H](C)Oc3ccc(NC(=O)Nc4ccccc4)cc3C(=O)N([C@@H](C)CO)C[C@@H]2C)cc1 | inactive: 0.95 |
| O=C(C[C@@H]1CC[C@H]2[C@@H](COC[C@@H](O)CN2S(=O)(=O)c2ccccc2F)O1)NCc1ccccc1F | inactive: 0.976 |
| C[C@@H]1CN([C@@H](C)CO)S(=O)(=O)c2ccc(C#C[C@@H](C)O)cc2O[C@@H]1CN(C)C(=O)CN(C)C | inactive: 1.02 |
| O=C1[C@@H]2[C@@H](C(=O)N1CCO)[C@@H]1C=C[C@@H]2C1 | inactive: 0.972 |
| C[C@H](CO)N1C[C@H](C)[C@H](CN(C)C(=O)c2cc(Cl)cc(Cl)c2)OCc2ccccc2-c2c(n(C)c3ccccc23)C1=O | inactive: 1.01 |
| COc1ccc(CNC(=O)N(C)C[C@H]2OCc3ccccc3-c3c(n(C)c4ccccc34)C(=O)N([C@@H](C)CO)C[C@@H]2C)cc1 | inactive: 0.903 |
| C[C@H](CO)N1C[C@H](C)[C@@H](CN(C)C(=O)N[C@H](C)c2ccccc2)OCc2ccccc2-c2c(n(C)c3ccccc23)C1=O | inactive: 0.999 |
| COc1ccc(C(=O)Nc2cccc(CN3C(=O)[C@@]4(O[C@@H](CC(=O)N(CCO)Cc5ccccc5)[C@H]([Si](C)(C)c5ccc(OC)cc5)[C@H]4C)c4ccccc43)c2)cc1 | inactive: 0.997 |
| N[C@@H](Cc1ccc2nonc2c1)C(=O)O | inactive: 1.02 |
| c1ccc([C@@H]2Oc3ccccc3[C@@H]3Oc4ccccc4C[C@@H]23)cc1 | inactive: 1.05 |

| Compound | relative growth |
| --- | --- |
| CO[C@H]1CN(C)C(=O)c2ccc(NC(=O)Nc3ccc(Cl)cc3)cc2OC[C@@H](C)N(C(=O)Nc2c(C)noc2C)C[C@H]1C | inactive: 0.988 |
| O=C(NCCN1CCOCC1)C(=O)NC[C@H]1COc2ccccc2O1 | inactive: 1.01 |
| C[C@@H]1CN([C@H](C)CO)S(=O)(=O)c2ccc(C#CCN(C)C)cc2O[C@@H]1CN(C)Cc1cccnc1 | inactive: 1 |
| COc1ccc(S(=O)(=O)Nc2ccc3c(c2)CC(=O)N([C@@H](C)CO)C[C@@H](C)[C@@H](CN(C)S(=O)(=O)c2ccc(C)cc2)O3)cc1 | inactive: 1.02 |
| C[C@@H]1CN([C@@H](C)CO)C(=O)Cc2cc(NC(=O)Nc3cccc4ccccc34)ccc2O[C@H]1CN(C)S(=O)(=O)c1ccc(F)cc1 | inactive: 1.02 |
| CCC(=O)O[C@H]1[C@H](O[C@@H]2[C@@H](C)[C@H](O[C@H]3C[C@@](C)(OC)[C@@H](O)[C@H](C)O3)[C@@H](C)C(=O)O[C@H](CC)[C@@](C)(O)[C@H](O)[C@@H](C)C(=O)[C@H](C)C[C@@]2(C)O)O[C@H](C)C[C@@H]1N(C)C | inactive: 0.947 |
| Cc1ccc(S(=O)(=O)Nc2ccc3c(c2)C(=O)N([C@H](C)CO)C[C@H](C)[C@@H](CN(C)Cc2ccncc2)OCCCC[C@H](C)O3)cc1 | inactive: 1.02 |
| Nc1ncnc2c1ncn2[C@H]1O[C@@H](CO)C[C@@H]1O | inactive: 1.01 |
| CC(C)NC(=O)N(C)C[C@H]1Oc2ncc(-c3ccc(C(=O)N(C)C)cc3)cc2C(=O)N([C@@H](C)CO)C[C@H]1C | inactive: 0.964 |
| C[C@@H]1CCCCO[C@@H](CN(C)S(=O)(=O)c2ccc(Cl)cc2)[C@H](C)CN([C@H](C)CO)C(=O)c2cc(NC(=O)C3CCCCC3)ccc2O1 | inactive: 1.06 |
| C[C@H]1CN([C@@H](C)CO)C(=O)c2cc(C#CC3(O)CCCC3)cnc2O[C@@H]1CN(C)S(=O)(=O)c1ccccc1 | inactive: 0.961 |
| O=C(C[C@@H]1CC[C@@H]2[C@H](COC[C@H](O)CN2C(=O)c2cnccn2)O1)N1CCN(c2ccccc2)CC1 | inactive: 0.989 |
| O=c1cc(-c2ccccc2)oc2cc(O)ccc12 | inactive: 0.945 |
| C[C@H](CO)N1C[C@H](C)[C@H](CN(C)S(=O)(=O)c2ccc(Cl)cc2)OCCCC[C@H](C)Oc2ccc(NC(=O)Nc3ccccc3)cc2C1=O | inactive: 0.992 |
| C=CCOC1=N[C@@H]2[C@@H](C(=O)N(C)C(=O)N2C)N1C | inactive: 0.907 |
| Cc1ccc(S(=O)(=O)N(C)C[C@@H]2Oc3ccc(NS(=O)(=O)c4cccs4)cc3CC(=O)N([C@@H](C)CO)C[C@@H]2C)cc1 | inactive: 0.961 |
| CS(=O)(=O)N1CCN(c2ccccc2)CC1 | inactive: 0.959 |
| CC(=O)Oc1ccccc1C(=O)O | inactive: 1.03 |
| CCO[C@H]1OC(C(=O)N2CCN(C)CC2)=C[C@@H](c2ccc3c(c2)OCO3)[C@@H]1CCCOC(=O)NCCCCCC(=O)NO | inactive: 1.02 |
| C[C@@H]1CCCCO[C@H](CN(C)C(=O)CCC(F)(F)F)[C@H](C)CN([C@H](C)CO)C(=O)c2cc(NC(=O)c3ccccc3)ccc2O1 | inactive: 0.971 |
| Cc1noc(C)c1NC(=O)Nc1ccc2c(c1)C(=O)N([C@H](C)CO)C[C@H](C)[C@@H](CN(C)S(=O)(=O)c1ccc(F)cc1)OCCCC[C@@H](C)O2 | inactive: 1 |

| Compound | relative growth |
| --- | --- |
| COc1ccccc1-c1cnc2c(c1)C(=O)N([C@@H](C)CO)C[C@H](C)[C@@H](CN(C)C(=O)c1cccnc1)O2 | inactive: 1.01 |
| C[C@@H]1CN([C@H](C)CO)C(=O)c2cc(NC(=O)CCC(F)(F)F)ccc2O[C@@H](C)CCCCO[C@H]1CN(C)C(=O)CCC(F)(F)F | inactive: 0.983 |
| C[C@@H]1O[C@@H](O[C@H]2C(=O)c3c(O)cc(O)cc3O[C@@H]2c2ccc(O)c(O)c2)[C@H](O)[C@H](O)[C@H]1O | inactive: 0.936 |
| COc1ccc(CN(C)C[C@@H]2OCCCC[C@@H](C)Oc3ccc(NC(=O)Nc4ccccc4)cc3C(=O)N([C@@H](C)CO)C[C@H]2C)cc1 | inactive: 1 |
| C[C@@H]1CCCCO[C@@H](CN(C)S(=O)(=O)c2ccc(F)cc2)[C@@H](C)CN([C@H](C)CO)C(=O)c2cc(NC(=O)C3CCCCC3)ccc2O1 | inactive: 1.03 |
| C[C@@H]1CN([C@H](C)CO)S(=O)(=O)c2ccc(C#CC3(O)CCCC3)cc2O[C@H]1CN(C)C(=O)c1cccnc1 | inactive: 1.02 |
| C[C@H](CO)N1C[C@H](C)[C@@H](CN(C)CC2CCCCC2)Oc2ccc(NC(=O)Nc3ccc(F)cc3)cc2C1=O | inactive: 1.01 |
| CNC(=O)Nc1ccc(S(N)(=O)=O)cc1 | inactive: 1.01 |
| C[C@H](CO)N1C[C@H](C)[C@H](CN(C)Cc2ccc(C(=O)Nc3ccccc3N)cc2)Oc2c(NS(=O)(=O)c3ccc(Cl)cc3)cccc2C1=O | inactive: 1 |
| CC(C)(C)Oc1ccc(O)cc1 | inactive: 0.881 |
| Cc1noc(C)c1S(=O)(=O)Nc1ccc2c(c1)CC(=O)N([C@H](C)CO)C[C@@H](C)[C@@H](CN(C)C(=O)NC1CCCCC1)O2 | inactive: 0.988 |
| C1CNCCN1.CC12CCC3c4ccc(OS(=O)(=O)O)cc4CCC3C1CCC2=O (stereo unspecified) | inactive: 0.965 |
| C[C@@]1(N)CCCC[C@@H]1C(=O)O | inactive: 0.937 |
| CCN(CC)/[N+]([O-])=N/OCOC(C)=O | inactive: 1 |
| O=C(C[C@H]1C[C@H]2c3cc(NC(=O)C4CCOCC4)ccc3O[C@H]2[C@H](CO)O1)NCc1ccc2c(c1)OCO2 | inactive: 0.888 |
| COc1ccc(S(=O)(=O)Nc2cccc3c2O[C@@H](CN(C)CC2CC2)[C@@H](C)CN([C@@H](C)CO)C3=O)cc1 | inactive: 1.01 |
| COC(=O)[C@H](Cc1ccccc1)N1CC2=C[C@@H](C3CC3)n3c(=O)n(C)c(=O)n3[C@H]2[C@@H]1[C@@H](O)CCn1cc(CCC(=O)NO)nn1 | inactive: 0.957 |
| COCCn1cc2c(n1)[C@H](CNC(=O)COC)OCC2 | inactive: 1.04 |
| COc1cc(CN2CCC(C(=O)N[C@@H](c3ccc(F)cc3)c3ccc4ccccc4n3)CC2)cc(OC)c1 | inactive: 0.977 |
